Several values for one entry are separate records, joined by “and”; a condition that tells them apart may be missing. Equal entries are not always repeated. Hit rate of the full screen: of about 150,000 compounds, about 6,500 (4.3%) were called active. This list was built around the results that the source calls inconclusive (neither active nor inactive); the mix of calls is not that of the screen. Calls come from the whole dose curve; as a rule, active = well fitted inhibition curve with a large enough effect (not every such curve was filed as active); inconclusive = small, poorly fitted or top-dose-only effect, or another doubt; inactive = no such curve, though single readings can be large or run the other way. Potencies of inconclusive entries are doubtful fits and often do not repeat.
These compounds were tested against 15-hydroxyprostaglandin dehydrogenase [NAD(+)] (Homo sapiens) (UniProt P15428) (assay: qHTS Assay for Inhibitors of HPGD (15-Hydroxyprostaglandin Dehydrogenase)). Conditions: purified HPGD, NADH fluorescence kinetic, PGE2 substrate; activity change, negative = inhibition: stronger effect = lower value.
Chain of UniProt P15428 (P15428 whole entry, looked up): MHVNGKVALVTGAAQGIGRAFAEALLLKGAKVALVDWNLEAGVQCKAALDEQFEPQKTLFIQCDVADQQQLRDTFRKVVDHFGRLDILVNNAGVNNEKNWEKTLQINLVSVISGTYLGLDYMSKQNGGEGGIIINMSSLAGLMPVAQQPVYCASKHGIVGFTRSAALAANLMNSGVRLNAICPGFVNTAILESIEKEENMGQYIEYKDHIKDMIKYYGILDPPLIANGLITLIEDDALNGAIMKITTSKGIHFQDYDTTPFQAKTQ
Method in brief: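 20 nM HPGD preincubated 15 min at room temperature with compound in 50 mM Tris-HCl pH 8, 0.01% Tween 20. Started with 1 mM NAD+ and 30 uM prostaglandin E2; NADH fluorescence (360/450 nm) read 5 times over 30-s intervals, last minus first.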
`Cc1ccc(-c2cc(C(=O)NCc3ccccn3)c3ccccc3n2)cc1C` was tested, and the Potency was inconclusive: 31.6 µM [inhibitor, partial curve]. `CCOc1ccccc1-c1cc(C(=O)N/N=C/c2ccc3c(c2)OCO3)c2ccccc2n1` was tested, and the Potency was inconclusive: 39.8 µM [inhibitor, single point]. For `COc1ccc2oc(=N)c(-c3nnc4n3CCCCC4)cc2c1`, the Potency was inconclusive: 25.1 µM [inhibitor, partial curve]. `COC(=O)c1ccc2nc(NC(=O)CN3C(=O)CCC3=O)sc2c1` was tested, and the Potency was inconclusive: 31.6 µM [inhibitor, single point]. With `CC1=CC(=O)C=C(C)C1=NOS(=O)(=O)c1ccccc1` the activity change, negative = inhibition was inactive: -14.5%. With `CC(C)(C)NC(=O)CN(C(=O)C1(C)CC(=O)N=C2C=CC=CN21)C1CCCC1` (stereo not drawn) the Potency was inconclusive: 35.5 µM [inhibitor, partial curve]. For `COc1cc(-c2cc(C(=O)Nc3c(Cl)cc(Cl)cc3Cl)c3ccccc3n2)cc(OC)c1OC`, the Potency was inconclusive: 28.2 µM [inhibitor, partial curve]. For `C=CCNC(=O)c1c2c(nc3ccccc13)-c1ccccc1CC2`, the Potency was inconclusive: 28.2 µM [inhibitor, partial curve]. With `CCOc1ccccc1NC(=O)CN(c1ccc(OC)cc1)S(=O)(=O)c1c(C)noc1C` the activity change, negative = inhibition was inactive: -6.24%. `CC(NC(=O)OCc1ccccc1)C(=O)Oc1cc2oc(=O)cc(-c3ccccc3)c2cc1Cl` (stereo not drawn) was tested, and the Potency was inconclusive: 17.8 µM [inhibitor, partial curve]. With `COc1cc(NS(=O)(=O)c2ccc(N/C=C(\C#N)c3nc4ccccc4o3)cc2)nc(OC)n1` the Potency was inconclusive: 20 µM [inhibitor, partial curve]. In the case of `O=C(Nc1ccccc1)c1cc(Cl)nc2ccccc12`, the activity change, negative = inhibition is reported as inactive: -7.98%. `O=C(O)CCc1ccc(-c2ccc(Br)cc2)o1` was tested, and the Potency was inconclusive: 31.6 µM [inhibitor, single point]. For `COc1ccc(-c2n[nH]c(=S)n2-c2ccc3c(c2)OCCO3)cc1`, the Potency was active: 25.1 µM. For `O=C(Cn1cnc2c(nnn2Cc2ccccc2)c1=O)c1ccccc1`, the Potency was active: 22.4 µM. `CN(/N=C/c1ccc2c(c1)OCO2)c1ccccc1` was tested, and the Potency was inconclusive: 22.4 µM [inhibitor, partial curve]. For `O=C(O)c1ccc2oc(SCC(=O)N3CCCCC3)nc2c1`, the Potency was active: 8.91 µM. For `CCc1nnc(NS(=O)(=O)c2ccc(NC(=S)NC(=O)/C=C/c3ccccc3)cc2)s1`, the Potency was inconclusive: 25.1 µM [inhibitor, single point]. For `Cn1c(C(=O)N2CCc3ccccc3C2)cc2c(=O)n3ccccc3nc21`, the Potency was inconclusive: 25.1 µM [inhibitor, partial curve]. With `CC(=O)O[C@H]1C[C@@]2(C)[C@@H](C[C@@H](O)[C@H]3[C@@]4(C)CC[C@@H](O)[C@@H](C)C4CC[C@@]32C)/C1=C(\CCC=C(C)C)C(=O)O` (stereo partly drawn) the activity change, negative = inhibition was inactive: 4.37%. `Cc1ccc(-n2nc(C)c3c(C)cc(=O)[nH]c32)cc1` was tested, and the Potency was inconclusive: 22.4 µM [inhibitor, single point]. In the case of `CCCn1c(SCC(=O)c2cc(C)ccc2C)n[nH]c1=O`, the activity change, negative = inhibition is reported as inactive: -4.78%. In the case of `N#Cc1ccc(-c2ccc3c(c2)OCO3)nc1SCC(=O)OCc1ccccc1`, the Potency is reported as inconclusive: 14.1 µM [inhibitor, partial curve]. For `COc1ccc(-c2nnc(SCCC(=O)O)n2-c2ccccc2)cc1`, the Potency was active: 31.6 µM. For `O=c1c2ccccc2nc(-c2ccco2)n1/N=C/c1ccccc1O`, the activity change, negative = inhibition was inactive: -1.94%. `CCOC(=O)N1CCC(NC(=O)c2ccc3c(c2)N(Cc2ccccc2)CCS3)CC1` was tested, and the Potency was inconclusive: 31.6 µM [inhibitor, partial curve]. `COC(=O)c1ccc(-c2ccco2)n1Cc1cc(C)ccc1C` was tested, and the Potency was inconclusive: 39.8 µM [inhibitor, single point]. For `CNC(=O)C1CC(=O)N(CCCc2ccccc2)C(=Nc2ccccc2)S1` (stereo not drawn), the activity change, negative = inhibition was inactive: -0.172%. In the case of `Cn1c(=O)c(C(=O)COC(=O)c2cc(C(F)(F)F)nc3ccccc23)c(N)n(Cc2ccccc2)c1=O`, the Potency is reported as inconclusive: 14.1 µM [inhibitor, partial curve]. With `Cc1ccccc1C(=O)N/N=C/c1ccsc1C` the activity change, negative = inhibition was inactive: -16.5%. `Cc1cccc(-c2ccc(C=Nc3c(C)n(C)n(-c4ccccc4)c3=O)o2)c1` was tested, and the activity change, negative = inhibition was inactive: -26.6%. With `COc1cccc(C(=O)NCc2ccccc2OC)c1` the Potency was inconclusive: 31.6 µM [inhibitor, partial curve]. `CSCCC(NC(C)=O)C(=O)Oc1ccc2c3c(c(=O)oc2c1)CCCC3` (stereo not drawn) was tested, and the Potency was inconclusive: 17.8 µM [inhibitor, partial curve]. `O=C(/C=C/c1ccccc1Cl)c1cccnc1` was tested, and the Potency was active: 28.2 µM. For `c1ccc(Cn2nnc3c(N4CCc5ccccc5C4)ncnc32)cc1`, the Potency was active: 31.6 µM. For `Cc1ccc(CNC(=O)[C@H]2C[C@@H]2[C@H](NP(=O)(c2ccccc2)c2ccccc2)c2ccccc2)o1`, the Potency was inconclusive: 17.8 µM [inhibitor, partial curve] and inconclusive: 31.6 µM [inhibitor, single point]. For `Cn1c(C(=O)NCCCN2CCN(c3ccccc3F)CC2)cc2c(=O)n(C)c3ccccc3c21`, the Potency was inconclusive: 31.6 µM [inhibitor, partial curve, poor fit]. `Cc1cc(C)cc(OCc2nnc(SCC(=O)c3ccccc3)o2)c1` was tested, and the Potency was active: 28.2 µM. `COc1ccc(-c2onc3ccc(Cl)cc23)cc1` was tested, and the Potency was inconclusive: 28.2 µM [inhibitor, partial curve]. `Cc1c(C)c2cc(Cl)c(O)c(CN(C)C)c2oc1=O` was tested, and the Potency was inconclusive: 10 µM [inhibitor, partial curve]. In the case of `CCOc1ccc2ccccc2c1/C=N/NC(=O)CNC(=O)C(c1ccccc1)c1ccccc1`, the Potency is reported as inconclusive: 25.1 µM [inhibitor, partial curve]. In the case of `c1ccc(Cn2nc(-c3ccccc3)nc2-c2ccccc2)cc1`, the activity change, negative = inhibition is reported as inactive: -8.9%. With `CCN(CC)C(=O)c1sc2nc(N3CCOCC3)c3c(c2c1N)CCCC3` the Potency was inconclusive: 12.6 µM [inhibitor, partial curve].

Source: PubChem BioAssay AID894 (National Center for Advancing Translational Sciences (NCATS), 2007)
% is set by controls: 0 for no effect and ±100 for the full control effect; potency is the fitted concentration of half-maximal effect; tags give direction and shape of the fitted curve.
